# Assay results as given in PMC4336329 (PLoS ONE, 2015).
# About 14,000 (4.5%) of roughly 310,000 compounds showed an effect of 50% or more. Effects have a minus sign here. Some of the results follow.
# Target: human ether-à-go-go-related gene (hERG) potassium channel (human, UniProt Q12809)
# Assay: primary screen, population patch clamp on CHO cells stably expressing hERG
# 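Note: peak tail current of the secondary pulse compared with the same well before compound.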
# human ether-à-go-go-related gene (hERG) potassium channel, sequence (Q12809 whole entry, looked up): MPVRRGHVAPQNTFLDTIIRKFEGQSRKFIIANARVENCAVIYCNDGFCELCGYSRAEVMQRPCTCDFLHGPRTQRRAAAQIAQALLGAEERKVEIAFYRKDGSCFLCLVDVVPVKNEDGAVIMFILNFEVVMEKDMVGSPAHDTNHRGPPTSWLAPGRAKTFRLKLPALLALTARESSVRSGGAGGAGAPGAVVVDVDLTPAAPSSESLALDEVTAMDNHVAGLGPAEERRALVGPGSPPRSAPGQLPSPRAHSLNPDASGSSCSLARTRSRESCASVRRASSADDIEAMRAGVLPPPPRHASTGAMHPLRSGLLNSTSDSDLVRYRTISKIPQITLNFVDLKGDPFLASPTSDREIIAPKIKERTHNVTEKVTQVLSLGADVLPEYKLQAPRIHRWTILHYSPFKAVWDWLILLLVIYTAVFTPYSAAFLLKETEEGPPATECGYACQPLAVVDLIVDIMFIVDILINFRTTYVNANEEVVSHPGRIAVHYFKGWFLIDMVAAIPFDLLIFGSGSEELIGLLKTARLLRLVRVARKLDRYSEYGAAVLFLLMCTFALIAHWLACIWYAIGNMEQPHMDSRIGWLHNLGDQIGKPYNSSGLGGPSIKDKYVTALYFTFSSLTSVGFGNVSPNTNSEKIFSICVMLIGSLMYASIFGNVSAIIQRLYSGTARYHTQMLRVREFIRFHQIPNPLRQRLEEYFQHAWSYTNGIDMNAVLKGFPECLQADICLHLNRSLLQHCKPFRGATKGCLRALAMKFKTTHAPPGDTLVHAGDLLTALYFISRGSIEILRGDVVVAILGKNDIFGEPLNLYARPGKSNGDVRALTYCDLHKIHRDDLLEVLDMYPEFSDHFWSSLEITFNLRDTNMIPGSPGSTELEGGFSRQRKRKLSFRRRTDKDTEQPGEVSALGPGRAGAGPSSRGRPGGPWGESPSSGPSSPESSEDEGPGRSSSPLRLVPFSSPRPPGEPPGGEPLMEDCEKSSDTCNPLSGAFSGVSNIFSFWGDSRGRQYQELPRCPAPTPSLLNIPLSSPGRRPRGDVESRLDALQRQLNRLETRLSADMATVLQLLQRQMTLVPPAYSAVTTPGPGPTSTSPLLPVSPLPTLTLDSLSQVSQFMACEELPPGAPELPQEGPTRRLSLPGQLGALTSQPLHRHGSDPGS
row,SMILES,"hERG current change (%, negative = inhibition) at 10uM"
1,COCCOC(=O)C1=C(N)Oc2c(oc(CO)cc2=O)C1c1c(F)cccc1Cl (stereo not drawn),-3.93%
2,CCCCn1c(=O)c(C(=O)Nc2cccc(C)c2)c(O)c2ccccc21,19.3%
3,CCOC(=O)c1c(NC(=O)C2=C(C)NC(=S)NC2c2ccc(C)cc2)sc(C)c1C (stereo not drawn),-1.14%
4,C/C(=N/NC(=O)c1ccco1)c1cccnc1,25%
5,CCCC(=O)Nc1ccc(C(=O)N2CCCC2)cc1,-8.04%
6,O=C(O)CC(NC(=O)c1sc2ccccc2c1Cl)c1ccc(OC2CCCC2)cc1 (stereo not drawn),-23.4%
7,COc1cccc(NC(=O)[C@H](Cc2c[nH]c3ccccc23)NC(=O)[C@@H]2Cc3ccccc3CN2)c1,-18%
8,O=C(CCc1ccccc1)NCCCNC(=O)CCc1ccccc1,7.49%
9,O=C(CSc1nnc(COc2cccc3cccnc23)o1)c1ccc(F)cc1,-5.86%
10,COc1ccccc1N1C(=O)NC(=O)/C(=C/c2ccc3c4c(cccc24)CC3)C1=O,12.8%
11,COc1ccc(C)cc1NC(=O)C(OC(=O)CNC(=O)c1cc(C)cc(C)c1)c1ccccc1 (stereo not drawn),18.9%
12,CCCn1c(=S)[nH]c2cc(C(=O)NCC3CCCO3)ccc2c1=O (stereo not drawn),3.73%
13,C=CCN(c1nc(C)cc(OC)n1)S(=O)(=O)c1ccccc1,-2.09%
14,Cc1cccc(CN2C[C@]34C=C[C@@H](C[C@@H]3S2(=O)=O)O4)c1,12.2%
15,O=C(c1ccc(F)cc1)N1CCN(c2ncccn2)CC1,-1.2%
16,CCOC(=O)c1ccc(NC(=S)NCCCN2CCCC2=O)cc1,-0.072%
17,O=C(CCc1ccc(O)cc1)c1c(O)cc(O)cc1O,17.9%
18,O=C1NC(=O)C2(C(=O)N1)C(c1ccc(F)cc1)NC(=S)NC2c1ccc(F)cc1 (stereo not drawn),10.7%
19,Cc1ccc(NC(=O)C2CC(=O)N/C(=N/N=C/c3ccco3)S2)cc1 (stereo not drawn),-8.45%

row,SMILES,"hERG current change (%, negative = inhibition) at 10uM"
1,CN(C)C1=NC[C@H](Cc2ccccc2)N1CC1CCCCCC1,-27.8%
2,COc1ccc(C(=O)CC(Nc2ccc([N+](=O)[O-])cc2)c2ccc(Cl)cc2)cc1 (stereo not drawn),-8.37%
3,O=C(CN1C(=O)COc2ccccc21)NCCC1=CCCCC1,-33.8%
4,O=C(CSc1nnc(CNC(=O)c2c(F)cccc2F)o1)NCC1CCCO1 (stereo not drawn),16%
5,CCc1ccc(C(=O)CSc2nc(N)cc(=O)[nH]2)cc1,22.6%
6,O=C1CC(c2ccc3c(c2)OCO3)C2=C(CCCC2=O)N1 (stereo not drawn),-5.08%
7,CCC(C)[C@H](N)c1nnc(SCC(=O)Nc2ccc(C)cc2C)o1 (stereo partly drawn),-17.4%
8,COc1ccc(C=O)cc1COc1ccc(C)cc1[N+](=O)[O-],2.06%
9,COc1ccc2[nH]c3nc(SC(C)C)nnc3c2c1,5.34%
10,CCOc1ccc(NC(=O)CN(C)C(=O)CCC2CCCCC2)cc1OCC,-24.2%
11,CC(NC(=S)NCCCN1CCOCC1)C12CC3CC(CC(C3)C1)C2 (stereo not drawn),6.47%
12,CC(C)(C)OC(=O)NCc1ccc(NC(=O)c2nc[nH]c2C(=O)N[C@@H](Cc2ccccc2)C(=O)OCc2ccccc2)cc1,11.4%
13,Fc1ccc(NCc2cccnc2)cc1,-2.54%
14,COc1cccc(CNC(=O)C2CSC3(C)CCC(=O)N23)c1 (stereo not drawn),6.82%
15,CC(C)(C)C(=O)Nc1ccc(C(=O)N/N=C/C2CC3C=CC2C3)cc1 (stereo not drawn),6.15%
16,CCS(=O)(=O)c1ccc(C(=O)NC2CC2)c(Cl)c1Cl,3.31%
17,CCOC(=O)c1ccc(OCC2NCCc3cc(OC)c(OC)cc32)cc1 (stereo not drawn),-16.5%
18,CCCC(=O)NC(c1ccc(Cl)cc1)c1ccc2cccnc2c1O (stereo not drawn),-43.7%
19,O=C(CCNC(=O)c1ccccc1Cl)NCc1ccco1,-5.42%

row,SMILES,"hERG current change (%, negative = inhibition) at 10uM"
1,CCc1cccc(NS(=O)(=O)c2csc(C(N)=O)c2)c1,-30.1%
2,COc1ccc(N(CC(=O)NCc2ccc(Cl)cc2)S(=O)(=O)c2c(C)noc2C)cc1,15.1%
3,Cc1[nH]c2ccccc2c1C(=O)C(=O)N1CCOCC1,-6.48%
4,CCOC(=O)Nc1ccc(S(=O)(=O)NCCCN2CCOCC2)cc1,-1.82%
5,O=C(COC(=O)CNC(=O)c1ccc([N+](=O)[O-])o1)Nc1ncc(Cl)cc1Cl,-54.9%
6,O=C(NCCCNC(=O)c1cccs1)c1cccs1,4.55%
7,Cc1cnc(C(=O)OCC(=O)c2c[nH]c3ccccc23)cn1,8.2%
8,Cc1ccc(NC(=O)c2ccc(C(C)(C)C)cc2)cc1[N+](=O)[O-],1.09%
9,CC(C)(C)CN1CCNC[C@H]1Cc1ccc(O)cc1,1.67%
10,Cc1nn(CCC(=O)Nc2cccc(C#N)c2)c(C)c1S(=O)(=O)N1CCCCC1,-1.67%
11,CN(C(=O)COC(=O)c1cc(S(=O)(=O)N2CCOCC2)ccc1Cl)C1CCS(=O)(=O)C1 (stereo not drawn),8.47%
12,Cc1ccc2[nH]c3c(c2c1)CCCC3NC(=O)CCl (stereo not drawn),-0.581%
13,CCCCC[C@H](O)/C=C/[C@@H]1[C@@H](CCCCCCC(=O)O)[C@@H](O)C[C@H]1O,19.6%
14,CNCCC=C1c2ccccc2C=Cc2ccccc21,-1.12%
15,Cc1ccc(SCC(=O)c2c(C)[nH]c3ccccc23)cc1,2.9%
16,COc1ccc(C(=O)N2CCCCCC2)cc1OC1CCN(C(C)C)CC1,-3.14%
17,O=C(NC1CC2CCC(C1)N2Cc1nnnn1Cc1ccco1)NC12CC3CC(CC(C3)C1)C2 (stereo not drawn),-42.9%
18,CCCCc1nc2cc(C(=O)N3CCNC(=O)C3CC(=O)OC)ccc2o1 (stereo not drawn),14.2%
19,CCN=C(NS(=O)(=O)c1ccc(Br)cc1)c1ccc(Cl)cc1,10.4%
